In the CheMixHub ionic liquid set:
Several values for one entry are separate records, joined by “and”; a condition that tells them apart may be missing. Equal entries are not always repeated. The source gives many values for each of these; only a part stands here.

Assay: xn = mol fraction of the nth substance listed
Conditions: 101 kPa

CCCCCCCCCCCCOS(=O)(=O)[O-].[Na+] + O
Conditions | electrical conductivity
308.15 K, x1 = 0.0001642 | 0.07226 S/m
308.15 K, x1 = 0.0001699 | 0.0729 S/m
308.15 K, x1 = 0.0001757 | 0.0742 S/m
308.15 K, x1 = 0.0001795 | 0.07536 S/m
308.15 K, x1 = 0.0001814 | 0.0753 S/m
308.15 K, x1 = 0.000187 | 0.0764 S/m
308.15 K, x1 = 0.0001928 | 0.0775 S/m
308.15 K, x1 = 0.0001979 | 0.07879 S/m
308.15 K, x1 = 0.0001982 | 0.0785 S/m
308.15 K, x1 = 0.0002038 | 0.0796 S/m
308.15 K, x1 = 0.0002092 | 0.0805 S/m
308.15 K, x1 = 0.0002147 | 0.0815 S/m
308.15 K, x1 = 0.00022 | 0.0824 S/m
308.15 K, x1 = 0.0002201 | 0.08275 S/m
308.15 K, x1 = 0.0002254 | 0.0834 S/m
308.15 K, x1 = 0.0002306 | 0.0843 S/m
308.15 K, x1 = 0.0002311 | 0.08468 S/m
308.15 K, x1 = 0.0002358 | 0.0852 S/m
308.15 K, x1 = 0.0002411 | 0.0861 S/m
308.15 K, x1 = 0.000243 | 0.08671 S/m
308.15 K, x1 = 0.0002463 | 0.087 S/m
308.15 K, x1 = 0.000256 | 0.08886 S/m
308.15 K, x1 = 0.0002705 | 0.09132 S/m
308.15 K, x1 = 0.0002866 | 0.09421 S/m
313.15 K, x1 = 6.692e-05 | 0.03438 S/m
313.15 K, x1 = 7.15e-05 | 0.03662 S/m
313.15 K, x1 = 7.683e-05 | 0.0396 S/m
313.15 K, x1 = 8.33e-05 | 0.0428 S/m
313.15 K, x1 = 9.132e-05 | 0.04664 S/m
313.15 K, x1 = 0.0001008 | 0.05133 S/m
313.15 K, x1 = 0.0001062 | 0.054 S/m
313.15 K, x1 = 0.0001123 | 0.05698 S/m
313.15 K, x1 = 0.0001191 | 0.06029 S/m
313.15 K, x1 = 0.0001264 | 0.06402 S/m
313.15 K, x1 = 0.0001355 | 0.06829 S/m
313.15 K, x1 = 0.000145 | 0.07309 S/m
313.15 K, x1 = 0.0001565 | 0.07799 S/m
313.15 K, x1 = 0.0001702 | 0.08184 S/m
313.15 K, x1 = 0.0001863 | 0.08548 S/m
313.15 K, x1 = 0.0002054 | 0.08933 S/m
313.15 K, x1 = 0.0002291 | 0.09414 S/m
313.15 K, x1 = 0.0002402 | 0.09639 S/m
313.15 K, x1 = 0.0002532 | 0.09885 S/m
313.15 K, x1 = 0.0002666 | 0.1014 S/m
313.15 K, x1 = 0.0002823 | 0.1045 S/m
313.15 K, x1 = 0.0002987 | 0.1077 S/m
318.15 K, x1 = 7.35e-06 | 0.0057 S/m
318.15 K, x1 = 1.463e-05 | 0.00954 S/m
318.15 K, x1 = 2.184e-05 | 0.0133 S/m
318.15 K, x1 = 2.898e-05 | 0.017 S/m
318.15 K, x1 = 3.604e-05 | 0.0208 S/m
318.15 K, x1 = 4.303e-05 | 0.0244 S/m
318.15 K, x1 = 4.997e-05 | 0.0279 S/m
318.15 K, x1 = 5.683e-05 | 0.0313 S/m
318.15 K, x1 = 6.689e-05 | 0.03767 S/m
318.15 K, x1 = 7.036e-05 | 0.0381 S/m
318.15 K, x1 = 7.144e-05 | 0.04034 S/m
318.15 K, x1 = 7.703e-05 | 0.0414 S/m
318.15 K, x1 = 7.716e-05 | 0.04354 S/m
318.15 K, x1 = 8.364e-05 | 0.0471 S/m and 0.0448 S/m
318.15 K, x1 = 9.164e-05 | 0.05132 S/m
318.15 K, x1 = 9.658e-05 | 0.0513 S/m
318.15 K, x1 = 0.0001012 | 0.05655 S/m
318.15 K, x1 = 0.0001031 | 0.0543 S/m
318.15 K, x1 = 0.0001065 | 0.05953 S/m
318.15 K, x1 = 0.0001094 | 0.0573 S/m
318.15 K, x1 = 0.0001126 | 0.06273 S/m
318.15 K, x1 = 0.0001157 | 0.0602 S/m
318.15 K, x1 = 0.0001194 | 0.06646 S/m
318.15 K, x1 = 0.000122 | 0.0632 S/m
318.15 K, x1 = 0.0001271 | 0.07062 S/m
318.15 K, x1 = 0.0001281 | 0.0659 S/m
318.15 K, x1 = 0.0001342 | 0.0687 S/m
318.15 K, x1 = 0.0001354 | 0.07531 S/m
318.15 K, x1 = 0.0001404 | 0.0711 S/m
318.15 K, x1 = 0.0001454 | 0.08075 S/m
318.15 K, x1 = 0.0001465 | 0.0734 S/m
318.15 K, x1 = 0.0001524 | 0.0755 S/m
318.15 K, x1 = 0.0001575 | 0.0864 S/m
318.15 K, x1 = 0.0001584 | 0.0774 S/m
318.15 K, x1 = 0.0001641 | 0.079 S/m
318.15 K, x1 = 0.0001699 | 0.0805 S/m
318.15 K, x1 = 0.0001709 | 0.09131 S/m
318.15 K, x1 = 0.0001757 | 0.0819 S/m
318.15 K, x1 = 0.0001814 | 0.0832 S/m
318.15 K, x1 = 0.0001869 | 0.09558 S/m
318.15 K, x1 = 0.000187 | 0.0845 S/m
318.15 K, x1 = 0.0001928 | 0.0857 S/m
318.15 K, x1 = 0.0001982 | 0.0868 S/m
318.15 K, x1 = 0.0002038 | 0.0879 S/m
318.15 K, x1 = 0.0002068 | 0.1003 S/m
318.15 K, x1 = 0.0002092 | 0.089 S/m
318.15 K, x1 = 0.0002147 | 0.0902 S/m
318.15 K, x1 = 0.00022 | 0.0912 S/m
318.15 K, x1 = 0.0002254 | 0.0924 S/m
318.15 K, x1 = 0.0002306 | 0.0936 S/m
318.15 K, x1 = 0.0002313 | 0.1057 S/m
318.15 K, x1 = 0.0002358 | 0.0946 S/m
318.15 K, x1 = 0.0002411 | 0.0956 S/m
318.15 K, x1 = 0.0002424 | 0.1083 S/m
318.15 K, x1 = 0.0002463 | 0.0966 S/m
318.15 K, x1 = 0.000255 | 0.1112 S/m
318.15 K, x1 = 0.0002683 | 0.1143 S/m
318.15 K, x1 = 0.0002836 | 0.1177 S/m
318.15 K, x1 = 0.0003016 | 0.1214 S/m
323.15 K, x1 = 6.341e-05 | 0.03905 S/m
323.15 K, x1 = 6.876e-05 | 0.04172 S/m
323.15 K, x1 = 7.37e-05 | 0.04513 S/m
323.15 K, x1 = 8.016e-05 | 0.04865 S/m
323.15 K, x1 = 8.779e-05 | 0.05323 S/m
323.15 K, x1 = 9.654e-05 | 0.05877 S/m
323.15 K, x1 = 0.0001019 | 0.06187 S/m
323.15 K, x1 = 0.0001083 | 0.06549 S/m
323.15 K, x1 = 0.0001148 | 0.06933 S/m
323.15 K, x1 = 0.0001224 | 0.07359 S/m
323.15 K, x1 = 0.0001308 | 0.07849 S/m
323.15 K, x1 = 0.0001407 | 0.08446 S/m
323.15 K, x1 = 0.0001513 | 0.09097 S/m
323.15 K, x1 = 0.0001658 | 0.098 S/m
323.15 K, x1 = 0.0001819 | 0.1043 S/m
323.15 K, x1 = 0.0002013 | 0.1099 S/m
323.15 K, x1 = 0.0002254 | 0.1163 S/m
323.15 K, x1 = 0.0002372 | 0.1191 S/m
323.15 K, x1 = 0.0002502 | 0.1226 S/m
323.15 K, x1 = 0.0002644 | 0.1259 S/m
323.15 K, x1 = 0.00028 | 0.1297 S/m
323.15 K, x1 = 0.000298 | 0.134 S/m
328.15 K, x1 = 6.795e-05 | 0.04512 S/m
328.15 K, x1 = 7.251e-05 | 0.04843 S/m
328.15 K, x1 = 7.822e-05 | 0.05216 S/m
328.15 K, x1 = 8.507e-05 | 0.05642 S/m
328.15 K, x1 = 9.305e-05 | 0.06154 S/m
328.15 K, x1 = 0.0001022 | 0.06761 S/m
328.15 K, x1 = 0.0001079 | 0.07113 S/m
328.15 K, x1 = 0.0001136 | 0.07507 S/m
328.15 K, x1 = 0.0001208 | 0.07955 S/m
328.15 K, x1 = 0.0001284 | 0.08434 S/m
328.15 K, x1 = 0.0001372 | 0.08978 S/m
328.15 K, x1 = 0.0001471 | 0.09628 S/m
328.15 K, x1 = 0.0001589 | 0.1035 S/m
328.15 K, x1 = 0.0001722 | 0.1112 S/m
328.15 K, x1 = 0.0001882 | 0.1178 S/m
328.15 K, x1 = 0.0002077 | 0.1243 S/m
328.15 K, x1 = 0.0002314 | 0.1312 S/m
328.15 K, x1 = 0.0002428 | 0.1344 S/m
328.15 K, x1 = 0.0002554 | 0.1379 S/m
328.15 K, x1 = 0.0002688 | 0.1416 S/m
328.15 K, x1 = 0.0002841 | 0.1457 S/m
328.15 K, x1 = 0.0003016 | 0.1501 S/m
